For test [1], the target named is T1, MBP-Inp1 C (281–420) (S. cerevisiae) (UniProt Q03694).
T1 sequence: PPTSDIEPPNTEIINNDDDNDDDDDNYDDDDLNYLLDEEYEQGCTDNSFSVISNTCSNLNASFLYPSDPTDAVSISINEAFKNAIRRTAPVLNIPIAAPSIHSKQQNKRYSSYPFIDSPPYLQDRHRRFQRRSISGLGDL
Briefly: pull-down; MBP-Inp1 N or C bound to amylose beads, incubated 2 h at 4°C with total lysate of E. coli expressing His-Pex3 (40–441); washes in PBS + 0.05% Igepal CA-630, one with 500 mM KCl; SDS-PAGE, Coomassie staining and Western blotting; only the target purified.

The target in test [2] is T2, MBP-Inp1 N (1–280) (S. cerevisiae) (UniProt Q03694).
T2 sequence: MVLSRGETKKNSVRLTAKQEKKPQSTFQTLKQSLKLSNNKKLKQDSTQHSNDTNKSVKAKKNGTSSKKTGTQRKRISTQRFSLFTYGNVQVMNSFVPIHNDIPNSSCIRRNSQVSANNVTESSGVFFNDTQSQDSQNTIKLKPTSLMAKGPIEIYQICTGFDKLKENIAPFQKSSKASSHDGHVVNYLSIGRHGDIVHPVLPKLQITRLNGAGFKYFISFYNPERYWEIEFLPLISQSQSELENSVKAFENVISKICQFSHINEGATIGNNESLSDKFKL
The test is described as above.

In another test the target is T3, GST-Inp1 (S. cerevisiae) (UniProt Q03694).
T3 sequence: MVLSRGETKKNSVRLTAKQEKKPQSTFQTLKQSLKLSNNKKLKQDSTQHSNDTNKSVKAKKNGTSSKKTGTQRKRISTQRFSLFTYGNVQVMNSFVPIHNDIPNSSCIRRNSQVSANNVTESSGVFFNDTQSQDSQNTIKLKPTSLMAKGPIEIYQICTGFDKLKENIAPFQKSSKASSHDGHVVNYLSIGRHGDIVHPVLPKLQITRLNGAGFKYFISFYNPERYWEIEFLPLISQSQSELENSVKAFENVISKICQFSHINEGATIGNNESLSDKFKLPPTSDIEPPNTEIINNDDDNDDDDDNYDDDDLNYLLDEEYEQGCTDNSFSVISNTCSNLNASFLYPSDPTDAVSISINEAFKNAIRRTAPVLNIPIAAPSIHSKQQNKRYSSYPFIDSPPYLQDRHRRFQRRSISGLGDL
Briefly: pull-down; GST-Inp1 and mutants bound to glutathione Sepharose, incubated 2 h at 4°C with lysate of E. coli expressing His-Pex3; washes in PBS + 0.05% Igepal CA-630, one with 500 mM KCl; SDS-PAGE, Coomassie staining; only the target purified.

The target of the next test is T4, MBP-Inp1 (S. cerevisiae) (UniProt Q03694).
T4 sequence: T3 sequence
Briefly: pull-down; competition: total lysates with His-Pex3 and MBP-Inp1 mixed and preincubated 30 min at 4°C; binding read from the loss of His-Pex3 on GST-Pex19 beads.

Test [3] addresses T1, MBP-Inp1 C (281–420) (S. cerevisiae). Briefly: pull-down; unbound fraction of the competition assay (mixed lysates of His-Pex3 and MBP-Inp1 C) incubated 1 h at 4°C with amylose beads; eluted with 10 mM maltose buffer; Coomassie staining and anti-His Western blot.
The target of test [4] is T5, GST-Pex19 (S. cerevisiae) (UniProt Q07418).
T5 sequence: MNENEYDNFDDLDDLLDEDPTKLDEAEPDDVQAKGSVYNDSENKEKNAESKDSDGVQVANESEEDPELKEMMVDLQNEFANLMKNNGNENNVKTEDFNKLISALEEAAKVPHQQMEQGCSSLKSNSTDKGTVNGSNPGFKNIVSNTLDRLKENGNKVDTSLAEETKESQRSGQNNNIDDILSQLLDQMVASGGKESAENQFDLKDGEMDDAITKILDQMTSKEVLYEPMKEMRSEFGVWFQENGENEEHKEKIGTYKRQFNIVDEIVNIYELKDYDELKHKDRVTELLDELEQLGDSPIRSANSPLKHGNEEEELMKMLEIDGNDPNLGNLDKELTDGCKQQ
Briefly: pull-down; competition: GST-Pex19 immobilised on glutathione Sepharose beads; His-Pex3 lysate premixed 30 min at 4°C with buffer, MBP, MBP-Inp1, MBP-Inp1 N or MBP-Inp1 C lysate, then 2 h at 4°C on the beads; washes incl. 0.5 M KCl; Coomassie staining; only the target purified.

For test [5], the target named is T6, Pex3 cytosolic domain (40–441), yeast two-hybrid bait (S. cerevisiae) (UniProt P28795).
T6 sequence: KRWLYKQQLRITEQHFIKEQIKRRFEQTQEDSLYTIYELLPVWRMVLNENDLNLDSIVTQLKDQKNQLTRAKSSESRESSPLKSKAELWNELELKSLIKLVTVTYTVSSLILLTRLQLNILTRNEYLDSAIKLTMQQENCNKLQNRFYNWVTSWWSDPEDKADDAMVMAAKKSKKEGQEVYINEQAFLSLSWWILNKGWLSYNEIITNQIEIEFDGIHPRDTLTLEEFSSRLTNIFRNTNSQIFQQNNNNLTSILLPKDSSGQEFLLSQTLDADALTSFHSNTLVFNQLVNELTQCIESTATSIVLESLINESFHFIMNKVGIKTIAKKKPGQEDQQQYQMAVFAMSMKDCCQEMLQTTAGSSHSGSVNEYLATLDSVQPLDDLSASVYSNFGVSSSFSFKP
Briefly: two-hybrid; genome-wide yeast two-hybrid screen with the Pex3 cytosolic domain (40–441) as bait.

The values that follow come from article PMC7659723.

No constants are given. Whether binding was seen depends on the method and setting. For some of these results: Binding seen in cells or lysates may run through a third protein. Some results given as binding are weak or reduced against the parent protein; the word gives no strength. For some of these results: Tags and fused reporters may be left off the sequences shown.

B1: His-Pex3 (40–441) (domain or fragment, UniProt P28795 40-441)
chain: T6 sequence
Consider B1, for which the binding entry is recorded as “binds” in test [1]; “no binding” in test [2]; “binds” with GST-Inp1 (S. cerevisiae); “binds” in the test with MBP-Inp1 (S. cerevisiae); “binds” in test [3]; “binds” in test [4].

B2: Inp1 fragment 300–378 (smallest yeast two-hybrid hit) (domain or fragment, UniProt Q03694 300-378)
chain: NDDDDDNYDDDDLNYLLDEEYEQGCTDNSFSVISNTCSNLNASFLYPSDPTDAVSISINEAFKNAIRRTAPVLNIPIAA
Turning to B2, the binding entry in test [5] is listed as “binds”.
